Results: the supplement of paper PMC8728848
The list shows a part of the results.

How the values were obtained:
Experiment in all cases: glycan array binding signal (z-score within array); higher = stronger binding
Settings in all cases: glycan notation: IUPAC condensed, linker removed
[1] = target: Neu5Ac(a2-3)Gal(b1-4)GlcNAc(b1-3)Gal(b1-4)GlcNAc(b1-3)Gal(b1-4)GlcNAc
Method in brief: (§1)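 Glycan array data came from 3228 arrays in the Consortium for Functional Glycomics database, and only arrays with an available protein sequence were kept. Glycan names were put into IUPAC-condensed notation, and columns mapping to the same glycan were averaged. The binding signal is a within-array Z-score, averaged across arrays of one protein sequence run at different concentrations or buffers and across linkers. A negative Z-score can be read as non-binding.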

[2] = target: Neu5Ac(a2-3)Gal(b1-4)GlcNAc(b1-3)Gal(b1-4)GlcNAc(b1-3)Gal(b1-4)GlcNAc(b1-2)Man(a1-3)[Neu5Ac(a2-3)Gal(b1-4)GlcNAc(b1-3)Gal(b1-4)GlcNAc(b1-3)Gal(b1-4)GlcNAc(b1-2)Man(a1-6)]GalNAc
Method in brief: as §1

[3] = target: Neu5Ac(a2-3)Gal(b1-4)GlcNAc(b1-3)Gal(b1-4)GlcNAc(b1-3)GalNAc
Method in brief: as §1

[4] = target: Neu5Ac(a2-3)Gal(b1-4)GlcNAc(b1-3)Gal(b1-4)GlcNAc(b1-3)[Neu5Ac(a2-3)Gal(b1-4)GlcNAc(b1-3)Gal(b1-4)GlcNAc(b1-6)]GalNAc
Method in brief: as §1

[5] = target: Neu5Ac(a2-3)Gal(b1-4)GlcNAc(b1-3)Gal(b1-4)GlcNAc(b1-6)[Gal(b1-3)]GalNAc
Method in brief: as §1

[6] = target: Neu5Ac(a2-3)Gal(b1-4)GlcNAc(b1-3)Gal(b1-4)[Fuc(a1-3)]GlcNAc
Method in brief: as §1

[7] = target: Neu5Ac(a2-3)Gal(b1-4)GlcNAc(b1-3)GalNAc
Method in brief: as §1

[8] = target: Neu5Ac(a2-3)Gal(b1-4)GlcNAc(b1-3)[Neu5Ac(a2-3)Gal(b1-4)GlcNAc(b1-6)]GalNAc
Method in brief: as §1

[9] = target: Neu5Ac(a2-3)Gal(b1-4)GlcNAc(b1-6)GalNAc
Method in brief: as §1

[10] = target: Neu5Ac(a2-3)Gal(b1-4)GlcNAc(b1-6)[Gal(b1-3)]GalNAc
Method in brief: as §1

[11] = target: Neu5Ac(a2-3)Gal(b1-4)GlcNAc(b1-6)[Neu5Ac(a2-3)Gal(b1-3)]GalNAc
Method in brief: as §1

[12] = target: Neu5Ac(a2-3)Gal(b1-4)GlcNAc6S
Method in brief: as §1

[13] = target: Neu5Ac(a2-3)Gal(b1-4)[Fuc(a1-3)]GlcNAc
Method in brief: as §1

[14] = target: Neu5Ac(a2-3)Gal(b1-4)[Fuc(a1-3)]GlcNAc(b1-2)Man
Method in brief: as §1

[15] = target: Neu5Ac(a2-3)Gal(b1-4)[Fuc(a1-3)]GlcNAc(b1-3)Gal
Method in brief: as §1

[16] = target: Neu5Ac(a2-3)Gal(b1-4)[Fuc(a1-3)]GlcNAc(b1-3)Gal(b1-4)GlcNAc
Method in brief: as §1

[17] = target: Neu5Ac(a2-3)Gal(b1-4)[Fuc(a1-3)]GlcNAc(b1-3)Gal(b1-4)[Fuc(a1-3)]GlcNAc(b1-3)Gal(b1-4)[Fuc(a1-3)]GlcNAc
Method in brief: as §1

[18] = target: Neu5Ac(a2-3)Gal(b1-4)[Fuc(a1-3)]GlcNAc(b1-3)GalNAc
Method in brief: as §1

[19] = target: Neu5Ac(a2-3)Gal(b1-4)[Fuc(a1-3)]GlcNAc(b1-6)[Gal(b1-3)]GalNAc
Method in brief: as §1

[20] = target: Neu5Ac(a2-3)Gal(b1-4)[Fuc(a1-3)]GlcNAc(b1-6)[Neu5Ac(a2-3)Gal(b1-3)]GalNAc
Method in brief: as §1

[21] = target: Neu5Ac(a2-3)Gal(b1-4)[Fuc(a1-3)]GlcNAc6S
Method in brief: as §1

[22] = target: Neu5Ac(a2-3)Gal6S(b1-4)GlcNAc
Method in brief: as §1

[23] = target: Neu5Ac(a2-3)Gal6S(b1-4)[Fuc(a1-3)]GlcNAc
Method in brief: as §1

[24] = target: Neu5Ac(a2-3)GalNAc
Method in brief: as §1

[25] = target: Neu5Ac(a2-3)GalNAc(b1-4)GlcNAc
Method in brief: as §1

[26] = target: Neu5Ac(a2-3)[GalNAc(b1-4)]Gal(b1-4)Glc
Method in brief: as §1

[27] = target: Neu5Ac(a2-3)[GalNAc(b1-4)]Gal(b1-4)GlcNAc
Method in brief: as §1

[28] = target: Neu5Ac(a2-3)[GalNAc(b1-4)]Gal(b1-4)GlcNAc(b1-3)GalNAc
Method in brief: as §1

[29] = target: Neu5Ac(a2-3)[Neu5Ac(a2-6)]GalNAc
Method in brief: as §1

[30] = target: Neu5Ac(a2-6)Gal
Method in brief: as §1

[31] = target: Neu5Ac(a2-6)Gal(b1-3)GlcNAc(b1-3)[Gal(b1-4)GlcNAc(b1-6)]Gal(b1-4)Glc
Method in brief: as §1

[32] = target: Neu5Ac(a2-6)Gal(b1-4)Glc
Method in brief: as §1

[33] = target: Neu5Ac(a2-6)Gal(b1-4)GlcNAc
Method in brief: as §1

[34] = target: Neu5Ac(a2-6)Gal(b1-4)GlcNAc(b1-2)Man
Method in brief: as §1

[35] = target: Neu5Ac(a2-6)Gal(b1-4)GlcNAc(b1-2)Man(a1-3)Man(b1-4)GlcNAc(b1-4)GlcNAc
Method in brief: as §1

[36] = target: Neu5Ac(a2-6)Gal(b1-4)GlcNAc(b1-2)Man(a1-3)[Gal(b1-4)GlcNAc(b1-2)Man(a1-6)]Man(b1-4)GlcNAc(b1-4)GlcNAc
Method in brief: as §1

[37] = target: Neu5Ac(a2-6)Gal(b1-4)GlcNAc(b1-2)Man(a1-3)[GlcNAc(b1-2)Man(a1-6)]Man(b1-4)GlcNAc(b1-4)GlcNAc
Method in brief: as §1

[38] = target: Neu5Ac(a2-6)Gal(b1-4)GlcNAc(b1-2)Man(a1-3)[GlcNAc(b1-4)][Neu5Ac(a2-6)Gal(b1-4)GlcNAc(b1-2)Man(a1-6)]Man(b1-4)GlcNAc(b1-4)GlcNAc
Method in brief: as §1

B1: Si Bti9 1b-V5-his (Solanum lycopersicum) (protein)
chain: MQCNRGCDLALASFYVWRGSNLTLISEMFSTSIADIVSYNNRDNIPNQDSVIAGTRINIPFRCDCLNDGEVLGHAFPYRVKSGDTYDLVARNYSDLTTAQWMMKFNSYPENNIPNTVNLSVVVNCSCGNSDVSKDFGLFVTYPVRAEDNLTSVASAANVSEDIIRRYNPAAVSILDIGQGIIYIPGRDRNGNFPPLPTSTDGLSGGAKKGGRADPAFLYKVVINSKLEGKPIPNPLLGLDSTRTGHHHHHH
- glycan array binding signal (z-score) [1]: -0.171
- glycan array binding signal (z-score) [2]: 0.446
- glycan array binding signal (z-score) [3]: -0.372
- glycan array binding signal (z-score) [4]: -0.241
- glycan array binding signal (z-score) [5]: -0.158
- glycan array binding signal (z-score) [6]: -0.379
- glycan array binding signal (z-score) [7]: 0.013
- glycan array binding signal (z-score) [8]: -0.16
- glycan array binding signal (z-score) [9]: -0.254
- glycan array binding signal (z-score) [10]: -0.108
- glycan array binding signal (z-score) [11]: -0.2
- glycan array binding signal (z-score) [12]: 10.6
- glycan array binding signal (z-score) [13]: -0.288
- glycan array binding signal (z-score) [14]: -0.404
- glycan array binding signal (z-score) [15]: -0.323
- glycan array binding signal (z-score) [16]: -0.373
- glycan array binding signal (z-score) [17]: -0.328
- glycan array binding signal (z-score) [18]: -0.144
- glycan array binding signal (z-score) [19]: -0.108
- glycan array binding signal (z-score) [20]: -0.156
- glycan array binding signal (z-score) [21]: -0.237
- glycan array binding signal (z-score) [22]: -0.293
- glycan array binding signal (z-score) [23]: -0.449
- glycan array binding signal (z-score) [24]: -0.221
- glycan array binding signal (z-score) [25]: -0.306
- glycan array binding signal (z-score) [26]: -0.275
- glycan array binding signal (z-score) [27]: -0.24
- glycan array binding signal (z-score) [28]: 0.153
- glycan array binding signal (z-score) [29]: -0.269
- glycan array binding signal (z-score) [30]: 3.19
- glycan array binding signal (z-score) [31]: -0.275
- glycan array binding signal (z-score) [32]: -0.238
- glycan array binding signal (z-score) [33]: -0.164
- glycan array binding signal (z-score) [34]: -0.175
- glycan array binding signal (z-score) [35]: -0.363
- glycan array binding signal (z-score) [36]: -0.165
- glycan array binding signal (z-score) [37]: -0.274
- glycan array binding signal (z-score) [38]: -0.315
